Source: PubChem BioAssay AID1159614 (National Center for Advancing Translational Sciences (NCATS), 2016)
The whole screen tested about 45,000 compounds, of which about 65 (0.1%) were called active. The call rests on the fitted dose curve; in most records, active means well fitted activation curve with a large enough effect; inconclusive means small, poorly fitted or top-dose-only effect; inactive means no such curve, though single readings can be large or run the other way. This is one part of the list.

Molecular target: Galactocerebrosidase (Homo sapiens) (UniProt P54803)
Assay: A Novel Cell-Based Assay to Identify Small Molecules for B -Galactocerebrosidase; further: 0% is about no effect; nearly all actives have a fitted effect of over 65% in size
Conditions: 145M-Twi-hGALC-G270D cells, HMU-beta-Gal fluorescence, 48 h; series mostly up to 57.5 µM; activation: at the top concentration
Summary of the method: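 qHTS, 1536-well; 145M-Twi-hGALC-G270D cells (WT line also made) in DMEM/F12 + 10% FBS; compound incubation on live cells; HMU-β-gal 0.1 mM final, pH 5.2, NaTC; carbonate stop; fluorescence increase = enhanced residual activity.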

Sequence of UniProt P54803 (P54803 whole entry, looked up): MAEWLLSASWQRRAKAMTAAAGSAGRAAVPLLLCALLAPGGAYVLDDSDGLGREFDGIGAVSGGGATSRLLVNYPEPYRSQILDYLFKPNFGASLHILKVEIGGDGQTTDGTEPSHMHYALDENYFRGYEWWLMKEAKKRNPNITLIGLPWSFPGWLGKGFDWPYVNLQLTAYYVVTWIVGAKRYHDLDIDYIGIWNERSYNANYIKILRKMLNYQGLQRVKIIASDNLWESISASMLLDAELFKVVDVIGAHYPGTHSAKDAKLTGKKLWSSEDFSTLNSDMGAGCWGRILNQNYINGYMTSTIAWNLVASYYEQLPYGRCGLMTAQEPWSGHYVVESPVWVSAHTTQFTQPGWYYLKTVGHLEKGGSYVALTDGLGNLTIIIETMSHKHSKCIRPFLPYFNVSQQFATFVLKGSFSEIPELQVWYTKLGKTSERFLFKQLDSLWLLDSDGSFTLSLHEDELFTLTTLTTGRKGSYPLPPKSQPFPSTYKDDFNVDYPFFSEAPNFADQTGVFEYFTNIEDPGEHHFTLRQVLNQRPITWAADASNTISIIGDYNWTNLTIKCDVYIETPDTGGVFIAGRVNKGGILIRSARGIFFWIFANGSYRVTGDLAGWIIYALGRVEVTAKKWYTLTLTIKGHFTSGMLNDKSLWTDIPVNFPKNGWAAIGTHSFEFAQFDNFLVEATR

SMILES	activation
Cc1ccc(C)c(N2CCN(C(=O)CN3C(=O)COc4ccc(S(=O)(=O)N5CCCCCC5)cc43)CC2)c1	inactive: -7.99%
CCOC(=O)c1c(NC(=O)c2noc3c2CC(C(C)(C)C)CC3)sc2c1CCCC2 (configuration not stated)	inactive: -22.8%
Cc1cc(C)c(Cn2c(C)c(CNCCCc3ccccc3)c(C(=O)O)c2C)c(C)c1	inactive: -16%
CC(=O)c1sc2c(c1C)c(=O)n(-c1ccc(Cl)cc1)c(=O)n2Cc1ccc(Cl)cc1	inactive: -12.9%
CC(NC(=O)Cn1ncc2c3ccccc3n(Cc3ccc(F)cc3)c2c1=O)c1ccccc1 (configuration not stated)	inactive: -17.1%
O=C(NCC(c1cccs1)S(=O)(=O)c1cccs1)c1ccccc1 (configuration not stated)	inactive: -33.4%
CCOC(=O)c1ccc(NC(=O)C2Cc3ccccc3CN2S(=O)(=O)c2ccc(Cl)cc2)cc1 (configuration not stated)	inactive: -10.4%
COc1ccc(Cl)cc1NS(=O)(=O)c1cc(-c2cc(C)no2)ccc1C	inactive: -13.2%
Cc1cc(Br)ccc1NC(=O)CCS(=O)(=O)c1cccc2nonc12	inactive: 7.88%
CCC1CN(C(=O)N2CCC(C(=O)NCc3ccc(C)o3)CC2)c2cc(C)ccc2O1 (configuration not stated)	inactive: -17.5%
CCOC(=O)N1CCN(S(=O)(=O)N2CCCC(C(=O)NCc3cccc(OC)c3)C2)CC1 (configuration not stated)	inactive: -5.21%
CC(=O)N1CCC(N(Cc2ccco2)C(=O)Nc2cccc(C)c2)CC1	inactive: -3.92%
CCOC(=O)c1cc2c(=O)n3ccccc3nc2n(CC2CCCO2)c1=NC(=O)c1cccc(C(F)(F)F)c1 (configuration not stated)	inactive: 0.549%
COc1ccc(-c2cc(C(=O)Nc3c(C(=O)c4ccc(Cl)cc4)oc4ccccc34)no2)cc1	inactive: -14.8%
Cc1cccc(NC(=O)c2cnn(-c3ccccc3)c2-n2cccc2)c1C	inactive: -47%
CC(=O)N1CCCc2cc(S(=O)(=O)N3CCC(C(=O)NCCC(C)C)CC3)ccc21	inactive: -18.5%
O=C(NC1CC(=O)N(c2ccc(F)cc2)C1)c1cc2ccccc2o1 (configuration not stated)	inactive: -9.88%
Cc1nc2c(C(=O)NCc3ccccc3Cl)cnn2c(C)c1Cc1c(F)cccc1Cl	inactive: -19.6%
CCOC(=O)c1nnc2c(-c3ccc(OC)cc3)c(C)nn2c1N	inactive: -1.05%
COc1ccccc1NC(=O)n1ncc2c(C)cccc21	inactive: -27.2%
CN1CCN(C(c2ccccc2)c2sc3nc(-c4ccco4)nn3c2O)CC1 (configuration not stated)	inactive: -8.61%

SMILES	activation
COc1ccc(OC)c(C2CC(=O)c3c([nH]c(C(=O)OCC4CCCCC4)c3C)C2)c1 (configuration not stated)	inactive: -17.8%
Cc1cccc(CCn2c(=O)c3ccccc3n(Cc3cccc(F)c3)c2=O)c1	inactive: -9.08%
O=NN(CCCl)C(=O)NCCCl	inactive: -7.45%
CC1CCc2nc(NC(=O)COc3ccc(C(C)(C)C)cc3)sc2C1 (configuration not stated)	inactive: -16.7%
CCOc1ccc(S(=O)(=O)Nc2ccc3oc(C)c(C(=O)OCCOC)c3c2)cc1	inactive: -10.5%
O=C(Cc1ccc(NC(=O)N2CCSc3ncccc32)cc1)NCc1ccccc1Cl	inactive: -16.9%
CCCC(=O)N1CC(=O)Nc2ccc(Cl)cc2C1c1ccc(F)cc1 (configuration not stated)	inactive: -28.6%
CC(=O)c1cccc(NC(=O)CCS(=O)(=O)c2cc(Br)cc3c2N(C(=O)C2CC2)CC3)c1	inactive: -17.3%
Cc1csc2nc(COC(=O)COc3ccccc3F)cc(=O)n12	inactive: -9.9%
Cn1c(C(=O)NCc2ccc(F)cc2)cc2c(=O)n(C)c3ccccc3c21	inactive: -12.3%
COc1ccc(CCNC(=O)Cn2nnc(-c3ccc(C(F)(F)F)cc3)n2)cc1OC	inactive: -22%
CCCn1c(=O)c2sccc2n2c(CCCC(=O)N3CCN(c4ccccc4)CC3)nnc12	inactive: -7.04%
CCS(=O)(=O)c1ncc(N(Cc2ccco2)Cc2sccc2C)c(C(=O)Nc2cc(C)ccc2C)n1	inactive: 16.6%
Cc1nc2ccn(Cc3cccnc3)c(=O)c2cc1C(=O)Nc1ccc(OC(F)(F)F)cc1	inactive: -20.1%
Cc1ccccc1NS(=O)(=O)c1ccc2[nH]cc(C(=O)N3CCCC3)c(=O)c2c1	inactive: -22.3%
COCCn1c(SCC(=O)Nc2ccc(F)c(Cl)c2)nc2c(oc3ccccc32)c1=O	inactive: -6.09%
COc1ccc(C(=O)NCCc2sc(-c3cccc(F)c3)nc2C)cc1	inactive: -3.44%
CCOc1ccccc1NC(=O)CCS(=O)(=O)c1cccc2nsnc12	inactive: 2.29%
Cc1c2cnn(CC(=O)N3CCN(c4ccccc4)CC3)c(=O)c2c(C)n1Cc1ccc(F)cc1	inactive: -3.51%
Cc1ccc(C)c(Cn2c(C(C)NC(=O)c3ccc(F)cc3)nc3ccccc32)c1 (configuration not stated)	inactive: -6.21%
CCN(c1ccccc1)S(=O)(=O)c1cc(-c2onc(C)c2C)ccc1OC	inactive: -7.87%

SMILES	activation
Cc1cccc(-c2noc(CCCC(=O)NCc3ccco3)n2)c1	inactive: -23.9%
Cc1ccc(Nc2ncnc3c2cnn3-c2ccccc2)c(C)c1	inactive: -13.6%
O=C(O)Cc1ccc(OCCNC[C@H](O)c2ccccc2)cc1	inactive: -9.66%
CC(=O)Nc1ccc(/C=N/NC(N)=S)cc1	inactive: -13.3%
COCCn1c(CCC(=O)Nc2cc(C)ccc2C)nc2cccnc21	inactive: -12.8%
COc1ccc(N2CCN(C(=O)c3c(C)oc4ncnc(N5CCCCC5)c34)CC2)cc1	inactive: -10.6%
CCOCCCNC(=O)C(c1ccccc1)N(Cc1cccs1)C(=O)c1ccc(NC(C)=O)cc1 (configuration not stated)	inactive: -8.49%
COc1cccc(N2C(=O)C(CC(=O)Nc3ccc(Cl)cc3)N(Cc3ccc4c(c3)OCO4)C2=O)c1 (configuration not stated)	inactive: -8.85%
CCc1cccc(NC(=O)c2nnn(Cc3ccc(SC)cc3)c2N)c1	inactive: 3.86%
CCn1c(=O)c2sccc2n2c(CCCC(=O)N3CCN(c4ccc(OC)cc4)CC3)nnc12	inactive: 5.02%
O=C1CC(c2ccccc2)Cc2[nH]c(=O)c(C(=O)Nc3ccc(OC(F)(F)F)cc3)cc21 (configuration not stated)	inactive: -13.1%
Cc1cccc(N2CCN(C(=O)C3CCCN(S(=O)(=O)c4cccc5nsnc45)C3)CC2)c1C (configuration not stated)	inactive: -14.4%
CC(C(=O)O)c1cccc(C(=O)c2ccccc2)c1 (configuration not stated)	inactive: -9.53%
O=C(Nc1ccc(Br)cc1)C1CCCN(S(=O)(=O)c2ccc(Br)s2)C1 (configuration not stated)	inactive: -10.1%
O=C(CCCCCn1c(=O)[nH]c2ccccc2c1=O)NCc1cccc(Cl)c1	inactive: -23.7%
Cc1ccc(NC(=O)CN2C(=O)C(c3ccc(F)cc3)=NC23CCCCC3)c(C)c1	inactive: -13.4%
CCc1ccccc1NC(=O)C(CC)Sc1ncnc2c1sc1ccccc12 (configuration not stated)	inactive: -4.81%
CCOc1ccccc1CNC(=O)C1CCN(S(=O)(=O)c2cccc3nonc23)CC1	inactive: 2.84%
Cn1c(=O)c2c(SCC(=O)N3CCc4ccccc43)nc(-c3cccc(F)c3)nc2n(C)c1=O	inactive: -5.07%
O=c1[nH]c2ccc(NCc3ccc(-c4cccc(Cl)c4)o3)cc2[nH]1	inactive: -12.3%
